Reference: paper PMC4336329 (PLoS ONE, 2015)
Screen size: about 310,000 compounds; about 2,200 (0.71%) showed an effect of 50% or more. Effects have a minus sign here. Some of the results follow.

These molecules were tested against human ether-à-go-go-related gene (hERG) potassium channel (human, UniProt Q12809) (assay: primary screen, population patch clamp on CHO cells stably expressing hERG).
human ether-à-go-go-related gene (hERG) potassium channel, sequence (Q12809 whole entry, looked up): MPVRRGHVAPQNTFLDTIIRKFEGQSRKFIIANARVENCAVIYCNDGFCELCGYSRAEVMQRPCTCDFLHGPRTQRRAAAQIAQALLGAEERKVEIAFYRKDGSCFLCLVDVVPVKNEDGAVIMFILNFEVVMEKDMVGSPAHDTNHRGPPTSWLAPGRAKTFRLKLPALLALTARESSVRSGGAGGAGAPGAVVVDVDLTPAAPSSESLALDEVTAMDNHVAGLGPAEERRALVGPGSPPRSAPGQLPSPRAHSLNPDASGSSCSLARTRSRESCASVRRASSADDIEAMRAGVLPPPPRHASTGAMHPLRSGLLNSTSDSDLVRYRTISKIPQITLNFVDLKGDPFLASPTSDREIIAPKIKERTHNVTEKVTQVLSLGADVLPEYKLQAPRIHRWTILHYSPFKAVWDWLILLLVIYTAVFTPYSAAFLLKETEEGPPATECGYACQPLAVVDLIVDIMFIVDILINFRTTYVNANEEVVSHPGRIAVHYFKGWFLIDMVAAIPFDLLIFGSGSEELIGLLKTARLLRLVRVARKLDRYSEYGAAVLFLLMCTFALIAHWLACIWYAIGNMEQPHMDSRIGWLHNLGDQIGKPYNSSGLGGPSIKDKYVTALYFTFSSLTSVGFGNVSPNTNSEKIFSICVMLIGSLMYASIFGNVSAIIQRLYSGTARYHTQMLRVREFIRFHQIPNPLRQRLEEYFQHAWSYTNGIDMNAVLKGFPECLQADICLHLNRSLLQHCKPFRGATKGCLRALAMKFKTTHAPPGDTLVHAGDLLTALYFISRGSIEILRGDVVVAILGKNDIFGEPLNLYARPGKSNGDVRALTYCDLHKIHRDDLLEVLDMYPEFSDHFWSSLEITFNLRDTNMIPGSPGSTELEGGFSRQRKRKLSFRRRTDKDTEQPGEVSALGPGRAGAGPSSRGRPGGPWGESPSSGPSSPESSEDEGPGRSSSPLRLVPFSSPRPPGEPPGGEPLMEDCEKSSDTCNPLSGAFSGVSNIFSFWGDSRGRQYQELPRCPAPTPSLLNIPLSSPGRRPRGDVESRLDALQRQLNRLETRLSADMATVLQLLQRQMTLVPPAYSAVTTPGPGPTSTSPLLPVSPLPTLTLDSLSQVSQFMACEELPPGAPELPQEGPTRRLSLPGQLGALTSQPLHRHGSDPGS

SMILES | hERG current change (%, negative = inhibition) at 1uM [%]
Clc1cccc(-c2ccc(/C=N/n3cnnc3)o2)c1 | 5.64
COc1ccc(/C=C/C(=O)OCC(=O)NC2CCCC2)c(OC)c1 | 5.24
Cn1nc2c3ccccc3n(Cc3ccccc3)c2nc1=S | 13.4
O=C(NCC1CCCO1)c1ccc2c(c1)ncn2-c1cccc(F)c1 (stereo not shown) | -2.48
CCc1ccc(O)c(CNCCNCc2cc(CC)ccc2O)c1 | 21.1
Cc1noc(C)c1COc1ccc(C(=O)OCc2nnc(-c3ccc(Cl)cc3)o2)cc1 | 17.2
Cc1cc(C=C2C(=O)N(C)C(=S)N(C)C2=O)c(C)n1-c1cccnc1 | 9.58
C=C(C)COc1ccc2c(CC)cc(=O)oc2c1C | 15.8
CCOC(=O)Cc1csc(NC(=O)COc2ccc3c(C)cc(=O)oc3c2)n1 | -2.96
O=C(NCc1ccco1)c1cc(-c2ccccc2)c(N2CCOCC2)s1 | 2.01
COC(=O)c1ccccc1NC(=S)NC(=O)COc1ccc(C(C)C)cc1 | 3.19
COC(=O)c1ccc(NC(=S)N2CCN(C)CC2)cc1 | -0.0495
O=C(/C=C/c1cccs1)Nc1cccnc1 | -5.36
CN(Cc1ccccc1)c1ccc(C(CC(N)=O)NC(=O)Cc2ccc(Br)cc2)cc1[N+](=O)[O-] (stereo not shown) | 14
CCOC(=O)c1cccc(NC(=O)/C=C/c2ccc3c(c2)OCO3)c1 | 3.87
O=C(O)CCCNC(=O)c1cncc(O)c1 | -8.94
CCOC(=O)c1c(N)sc2c(OCC)c(Br)ccc12 | 8.57
O=C(CCn1c2c(c3ccccc31)CCCC2)NNC(=O)c1ccccc1C(=O)O | 10.1
Cc1c(C(=O)Nc2ccccc2)cc(-c2ccccc2)n1CCCN1CCOCC1 | 9.02
CCN(CC(=O)Nc1ccccc1C(F)(F)F)C(=O)c1cc2c(s1)CCCCC2 | -0.525
Cc1nc(Nc2ccc(Cl)cc2)c(C#N)c(=O)[nH]1 | 15.2
CCOC(=O)Cc1cc(-c2ccc(OC)cc2)nc2ccc3ccccc3c12 | 0.958

SMILES | hERG current change (%, negative = inhibition) at 1uM [%]
CCCCn1c(C)c(C(=O)OCC)c2c(CN3CCCC3)c(O)ccc21 | -27.7
Cc1ccc(C)n1/N=C1/NC(=O)CS1 | 5.1
Cc1cc(N2CCOCC2)n2nc(C)c(-c3ccc(Cl)cc3)c2n1 | 7.28
COc1cc2cc(CN(C(=O)Nc3ccccc3)C3CCCC3)c(=O)[nH]c2cc1OC | -6.42
CC(C)NC(=O)NNC(=O)c1nn(-c2ccc(F)cc2)ccc1=O | 5.13
O=C1CSC(c2ccc(Cl)cc2)N1Nc1nc(N2CCOCC2)nc(N2CCOCC2)n1 (stereo not shown) | 12.2
O=C(C1=C(O)C(=O)N(CC2CCCO2)C1c1ccccc1)c1ccco1 (stereo not shown) | 16
CC(=O)Nc1ccc2nc(N)sc2c1 | 9.3
CCOc1cccc(/C=N/NC(=S)Nc2cc(S(=O)(=O)N3CCOCC3)ccc2N2CCOCC2)c1O | 13.9
COc1cc(-c2nc(C(=O)NCC3CCCO3)cc3c2[nH]c2ccccc23)cc(OC)c1OC (stereo not shown) | 8.16
COc1ccc(-c2cnnn2-c2ccc(NC(=O)/C=C/c3ccc(OC)c(OC)c3)cc2)cc1 | -3.76
Nn1nnc2ccccc21 | 0.917
CCOC(=O)c1c(C)c(C(=O)N2CCN(c3ccccc3)CC2)c(C)n1C | 11.2
Cc1cc(=O)c2cccc(Br)c2[nH]1 | 7.87
Cc1cc(-c2ccc(N=Nc3c(S(=O)(=O)[O-])cc4cc(S(=O)(=O)[O-])cc(N)c4c3O)c(C)c2)ccc1N=Nc1c(S(=O)(=O)[O-])cc2cc(S(=O)(=O)[O-])cc(N)c2c1O.[Na+] | 15.1
CCOC(=O)c1c(CSc2ccccc2)n(C)c2ccc(O)c(CN3CCN(C)CC3)c12 | 10.4
CSc1nc2nc(-c3ccccc3)cc(=O)n2[nH]1 | -16.2
COc1cc2[nH]c(=O)n(CCC(=O)N3CCN(Cc4ccccc4)CC3)c(=O)c2cc1OC | 8.65
CCc1ccc(NC(=O)CNC(=O)c2nn(-c3ccc(OC)cc3)c(=O)c3ccccc23)cc1 | 8.44
COc1ccc(CN(CC(=O)NC2CCCC2)C(=O)c2onc(C(N)=O)c2N)cc1 | 0.575
CCC(CC)C(=O)Nc1cccc(S(=O)(=O)c2cccc(NC(=O)C(CC)CC)c2)c1 | 16.4
